The supplement of paper PMC10441789
Some of the results follow. Antibody binding of pooled human sera (four to six donors per pool; dilution not stated) to peptides of the Trypanosoma cruzi antigen TSSA on microarrays. Quantile-normalised fluorescence in arbitrary units, mean of duplicate arrays; higher = more binding. No active / inactive call. The uninfected pools are read here as the healthy donors of the same country. The strongest signals lie near the top of the scale (about 60,000).

Legend:
Experiment in all cases: antibody binding signal (normalised fluorescence) (arbitrary fluorescence units); higher = stronger serum antibody binding to peptide
[1] = system: pooled sera of chronic Chagas disease patients, Argentina
Description: (§1)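 Microarray of 15-residue peptides over residues 30-55 of Trypanosoma cruzi TSSAII, each with 1 to 10 substitutions at naturally variable positions, probed with one serum pool per country.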

[2] = system: pooled sera of chronic Chagas disease patients, Bolivia
Description: as §1

[3] = system: pooled sera of chronic Chagas disease patients, Brazil
Description: as §1

[4] = system: pooled sera of chronic Chagas disease patients, Colombia
Description: as §1

[5] = system: pooled sera of chronic Chagas disease patients, Mexico
Description: as §1

[6] = system: pooled sera of chronic Chagas disease patients, USA
Description: as §1

[7] = system: pooled sera of uninfected people, Argentina
Description: as §1

[8] = system: pooled sera of uninfected people, Bolivia
Description: as §1

[9] = system: pooled sera of uninfected people, Brazil
Description: as §1

[10] = system: pooled sera of uninfected people, Colombia
Description: as §1

[11] = system: pooled sera of uninfected people, Mexico
Description: as §1

[12] = system: pooled sera of uninfected people, USA
Description: as §1

Sequence: KEKKPATGETPSQPG
- antibody binding signal [1]: 25000
- antibody binding signal [2]: 7270
- antibody binding signal [3]: 35900
- antibody binding signal [4]: 249
- antibody binding signal [5]: 331
- antibody binding signal [6]: 17700
- antibody binding signal [7]: 211
- antibody binding signal [8]: 202
- antibody binding signal [9]: 177
- antibody binding signal [10]: 172
- antibody binding signal [11]: 912
- antibody binding signal [12]: 427

Sequence: NKAAAGGTPSPSGAS
- antibody binding signal [1]: 396
- antibody binding signal [2]: 315
- antibody binding signal [3]: 5960
- antibody binding signal [4]: 4490
- antibody binding signal [5]: 595
- antibody binding signal [6]: 1500
- antibody binding signal [7]: 572
- antibody binding signal [8]: 811
- antibody binding signal [9]: 1700
- antibody binding signal [10]: 489
- antibody binding signal [11]: 290
- antibody binding signal [12]: 1230

Sequence: STPPSGKDNKTATGG
- antibody binding signal [1]: 42300
- antibody binding signal [2]: 4970
- antibody binding signal [3]: 9460
- antibody binding signal [4]: 1380
- antibody binding signal [5]: 35500
- antibody binding signal [6]: 3440
- antibody binding signal [7]: 337
- antibody binding signal [8]: 519
- antibody binding signal [9]: 145
- antibody binding signal [10]: 294
- antibody binding signal [11]: 114
- antibody binding signal [12]: 242

Sequence: NKAAAGETPSQPGAS
- antibody binding signal [1]: 1580
- antibody binding signal [2]: 8690
- antibody binding signal [3]: 39600
- antibody binding signal [4]: 241
- antibody binding signal [5]: 256
- antibody binding signal [6]: 2630
- antibody binding signal [7]: 518
- antibody binding signal [8]: 2100
- antibody binding signal [9]: 450
- antibody binding signal [10]: 872
- antibody binding signal [11]: 342
- antibody binding signal [12]: 1150

Sequence: TDKKAATGETPSQSG
- antibody binding signal [1]: 1490
- antibody binding signal [2]: 2420
- antibody binding signal [3]: 16100
- antibody binding signal [4]: 187
- antibody binding signal [5]: 413
- antibody binding signal [6]: 10400
- antibody binding signal [7]: 256
- antibody binding signal [8]: 192
- antibody binding signal [9]: 227
- antibody binding signal [10]: 453
- antibody binding signal [11]: 279
- antibody binding signal [12]: 151

Sequence: DKKAATGGAPSQSGA
- antibody binding signal [1]: 790
- antibody binding signal [2]: 358
- antibody binding signal [3]: 652
- antibody binding signal [4]: 899
- antibody binding signal [5]: 1110
- antibody binding signal [6]: 863
- antibody binding signal [7]: 494
- antibody binding signal [8]: 464
- antibody binding signal [9]: 133
- antibody binding signal [10]: 673
- antibody binding signal [11]: 143
- antibody binding signal [12]: 203

Sequence: TEKKAAAGEAPSQPG
- antibody binding signal [1]: 8040
- antibody binding signal [2]: 20500
- antibody binding signal [3]: 41400
- antibody binding signal [4]: 489
- antibody binding signal [5]: 499
- antibody binding signal [6]: 13400
- antibody binding signal [7]: 104
- antibody binding signal [8]: 327
- antibody binding signal [9]: 168
- antibody binding signal [10]: 124
- antibody binding signal [11]: 161
- antibody binding signal [12]: 210

Sequence: SGTDKKPAAGGAPSP
- antibody binding signal [1]: 620
- antibody binding signal [2]: 574
- antibody binding signal [3]: 23000
- antibody binding signal [4]: 9670
- antibody binding signal [5]: 2780
- antibody binding signal [6]: 1760
- antibody binding signal [7]: 238
- antibody binding signal [8]: 322
- antibody binding signal [9]: 214
- antibody binding signal [10]: 271
- antibody binding signal [11]: 1740
- antibody binding signal [12]: 245

Sequence: GTEKKPATGEAPSQP
- antibody binding signal [1]: 45900
- antibody binding signal [2]: 44000
- antibody binding signal [3]: 44400
- antibody binding signal [4]: 1220
- antibody binding signal [5]: 2280
- antibody binding signal [6]: 40700
- antibody binding signal [7]: 854
- antibody binding signal [8]: 1430
- antibody binding signal [9]: 2040
- antibody binding signal [10]: 289
- antibody binding signal [11]: 391
- antibody binding signal [12]: 781

Sequence: GTENKPAAGETPSQS
- antibody binding signal [1]: 48100
- antibody binding signal [2]: 4290
- antibody binding signal [3]: 21800
- antibody binding signal [4]: 1150
- antibody binding signal [5]: 2780
- antibody binding signal [6]: 4640
- antibody binding signal [7]: 334
- antibody binding signal [8]: 1630
- antibody binding signal [9]: 255
- antibody binding signal [10]: 220
- antibody binding signal [11]: 185
- antibody binding signal [12]: 127

Sequence: TDNKAAAGETPSPPG
- antibody binding signal [1]: 202
- antibody binding signal [2]: 173
- antibody binding signal [3]: 11100
- antibody binding signal [4]: 180
- antibody binding signal [5]: 209
- antibody binding signal [6]: 986
- antibody binding signal [7]: 104
- antibody binding signal [8]: 394
- antibody binding signal [9]: 145
- antibody binding signal [10]: 83.6
- antibody binding signal [11]: 131
- antibody binding signal [12]: 1290

Sequence: ISTPPSGTDNKTATG
- antibody binding signal [1]: 34900
- antibody binding signal [2]: 50100
- antibody binding signal [3]: 52200
- antibody binding signal [4]: 1330
- antibody binding signal [5]: 14800
- antibody binding signal [6]: 20700
- antibody binding signal [7]: 1120
- antibody binding signal [8]: 685
- antibody binding signal [9]: 1530
- antibody binding signal [10]: 229
- antibody binding signal [11]: 306
- antibody binding signal [12]: 419

Sequence: KDNKTAAGETPSQPG
- antibody binding signal [1]: 1420
- antibody binding signal [2]: 607
- antibody binding signal [3]: 28500
- antibody binding signal [4]: 2030
- antibody binding signal [5]: 208
- antibody binding signal [6]: 1370
- antibody binding signal [7]: 525
- antibody binding signal [8]: 389
- antibody binding signal [9]: 194
- antibody binding signal [10]: 324
- antibody binding signal [11]: 156
- antibody binding signal [12]: 202

Sequence: ENKPATGGTPSPSGA
- antibody binding signal [1]: 708
- antibody binding signal [2]: 3950
- antibody binding signal [3]: 2990
- antibody binding signal [4]: 352
- antibody binding signal [5]: 756
- antibody binding signal [6]: 598
- antibody binding signal [7]: 391
- antibody binding signal [8]: 710
- antibody binding signal [9]: 492
- antibody binding signal [10]: 688
- antibody binding signal [11]: 215
- antibody binding signal [12]: 282

Sequence: GKENKPAAGEAPSPS
- antibody binding signal [1]: 6370
- antibody binding signal [2]: 2480
- antibody binding signal [3]: 23500
- antibody binding signal [4]: 7770
- antibody binding signal [5]: 8380
- antibody binding signal [6]: 20400
- antibody binding signal [7]: 619
- antibody binding signal [8]: 310
- antibody binding signal [9]: 195
- antibody binding signal [10]: 131
- antibody binding signal [11]: 279
- antibody binding signal [12]: 99.7

Sequence: GTDKKAAAGGTPSQP
- antibody binding signal [1]: 253
- antibody binding signal [2]: 273
- antibody binding signal [3]: 250
- antibody binding signal [4]: 5170
- antibody binding signal [5]: 423
- antibody binding signal [6]: 1540
- antibody binding signal [7]: 246
- antibody binding signal [8]: 165
- antibody binding signal [9]: 916
- antibody binding signal [10]: 185
- antibody binding signal [11]: 310
- antibody binding signal [12]: 126

Sequence: GKENKTATGEAPSPP
- antibody binding signal [1]: 17400
- antibody binding signal [2]: 18300
- antibody binding signal [3]: 23900
- antibody binding signal [4]: 9150
- antibody binding signal [5]: 4810
- antibody binding signal [6]: 25800
- antibody binding signal [7]: 446
- antibody binding signal [8]: 137
- antibody binding signal [9]: 208
- antibody binding signal [10]: 186
- antibody binding signal [11]: 187
- antibody binding signal [12]: 175

Sequence: PPSGKEKKTATGGTP
- antibody binding signal [1]: 1440
- antibody binding signal [2]: 518
- antibody binding signal [3]: 1450
- antibody binding signal [4]: 2740
- antibody binding signal [5]: 3320
- antibody binding signal [6]: 3390
- antibody binding signal [7]: 323
- antibody binding signal [8]: 263
- antibody binding signal [9]: 112
- antibody binding signal [10]: 186
- antibody binding signal [11]: 104
- antibody binding signal [12]: 128

Sequence: ENKAAAGEAPSPSGA
- antibody binding signal [1]: 345
- antibody binding signal [2]: 807
- antibody binding signal [3]: 18800
- antibody binding signal [4]: 255
- antibody binding signal [5]: 161
- antibody binding signal [6]: 13100
- antibody binding signal [7]: 145
- antibody binding signal [8]: 108
- antibody binding signal [9]: 116
- antibody binding signal [10]: 65.8
- antibody binding signal [11]: 83.1
- antibody binding signal [12]: 98.7

Sequence: PSGTDNKAAAGETPS
- antibody binding signal [1]: 18900
- antibody binding signal [2]: 12100
- antibody binding signal [3]: 43300
- antibody binding signal [4]: 559
- antibody binding signal [5]: 322
- antibody binding signal [6]: 733
- antibody binding signal [7]: 156
- antibody binding signal [8]: 720
- antibody binding signal [9]: 1370
- antibody binding signal [10]: 294
- antibody binding signal [11]: 238
- antibody binding signal [12]: 157

Sequence: GKDKKPATGETPSQS
- antibody binding signal [1]: 22100
- antibody binding signal [2]: 4730
- antibody binding signal [3]: 22400
- antibody binding signal [4]: 1940
- antibody binding signal [5]: 1980
- antibody binding signal [6]: 17600
- antibody binding signal [7]: 217
- antibody binding signal [8]: 179
- antibody binding signal [9]: 129
- antibody binding signal [10]: 144
- antibody binding signal [11]: 871
- antibody binding signal [12]: 93.8

Sequence: TENKAAAGEAPSPSG
- antibody binding signal [1]: 34900
- antibody binding signal [2]: 1200
- antibody binding signal [3]: 16900
- antibody binding signal [4]: 228
- antibody binding signal [5]: 199
- antibody binding signal [6]: 11500
- antibody binding signal [7]: 141
- antibody binding signal [8]: 128
- antibody binding signal [9]: 130
- antibody binding signal [10]: 68
- antibody binding signal [11]: 81.3
- antibody binding signal [12]: 150

Sequence: TDKKAAAGGAPSPPG
- antibody binding signal [1]: 1310
- antibody binding signal [2]: 290
- antibody binding signal [3]: 219
- antibody binding signal [4]: 5720
- antibody binding signal [5]: 593
- antibody binding signal [6]: 992
- antibody binding signal [7]: 222
- antibody binding signal [8]: 146
- antibody binding signal [9]: 226
- antibody binding signal [10]: 136
- antibody binding signal [11]: 153
- antibody binding signal [12]: 141

Sequence: GKDKKTATGGAPSPP
- antibody binding signal [1]: 553
- antibody binding signal [2]: 249
- antibody binding signal [3]: 245
- antibody binding signal [4]: 1560
- antibody binding signal [5]: 545
- antibody binding signal [6]: 760
- antibody binding signal [7]: 213
- antibody binding signal [8]: 103
- antibody binding signal [9]: 99.2
- antibody binding signal [10]: 106
- antibody binding signal [11]: 103
- antibody binding signal [12]: 106

Sequence: PSGKDKKAATGGAPS
- antibody binding signal [1]: 2860
- antibody binding signal [2]: 725
- antibody binding signal [3]: 2100
- antibody binding signal [4]: 5320
- antibody binding signal [5]: 4940
- antibody binding signal [6]: 3280
- antibody binding signal [7]: 248
- antibody binding signal [8]: 395
- antibody binding signal [9]: 82.8
- antibody binding signal [10]: 282
- antibody binding signal [11]: 85.5
- antibody binding signal [12]: 101
